Results taken from PubChem BioAssay AID1508624 (National Center for Advancing Translational Sciences (NCATS), 2021).
The whole screen tested about 48,000 compounds, of which about 120 (0.25%) were called active. Roughly 4% stayed inconclusive and do not appear here. Calls follow the shape of the dose curve; as a rule, active = well fitted activation curve with a large enough effect; inconclusive = small, poorly fitted or top-dose-only effect, or another doubt; inactive = no such curve, though single readings can be large or run the other way. The list shows a part of the results.

Test: Primary qHTS for Identification of Small Molecule Activators of Huntingtin-Antisense Promoter Activity; also: nearly all actives have a fitted effect of over 55% in size
Conditions: HEK293 HTT-AS promoter firefly luciferase reporter, 24 h; series mostly up to 57.5 µM; activity change, positive = activation: at the top concentration
How it was run: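 HEK293 luciferase promoter-reporter cells (2,500/well) plated 24 h, then compounds added at up to 57.5 uM final for 24 h at 37 °C. Firefly luminescence by Dual-Glo, normalized to vehicle (0%) and zero RLU (-100%).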

Activity change, positive = activation, inactive:
COC(=O)c1ccc(NC(=O)C2CCN(C(=O)c3ccc(F)cc3)CC2)cc1 -12.3%, N#Cc1cccc(NC(=O)C2CCN(c3ncccn3)CC2)c1 -3%, CCS(=O)(=O)CCSc1nc(-c2ccc(Br)cc2)cc(-c2ccccc2)c1C#N 2.47%, CCOc1cc(C(=O)Nc2ccc(-c3nc4ncccc4o3)cc2C)cc(OCC)c1OCC 2.78%, Cc1cccc(NC(=O)CCn2nc(-c3ccccc3)c3ccccc3c2=O)c1 -17.6%, CC1=C(C(=O)Nc2ccccc2C)C(c2cccnc2)n2nc(SCc3ccccc3F)nc2N1 (stereo not given) -5.83%, O=C(CCn1c(=O)c2cccn2c2cccnc21)N1CCN(c2cccc(Cl)c2)CC1 -33.9%, CCc1ccc(OCC(=O)N(Cc2ccc(OC)cc2)C2CCS(=O)(=O)C2)cc1 (stereo not given) -14.8%, Cc1cccc(-c2nc(SCC(=O)Nc3ccc4c(c3)OCO4)c(-c3ccccc3)[nH]2)c1 -31.7%, CN1C(=O)Cc2cc(S(=O)(=O)NCCc3ccccc3)ccc21 9.73%, COc1ccc(NC(=O)C2CCCN2S(=O)(=O)c2ccc3nc(-c4ccccc4)[nH]c3c2)cc1 (stereo not given) -13.1%, CCOC(=O)c1cc(-c2ccc(C)cc2)n(CCC(=O)Nc2ccc(OC)c(OC)c2)c1C -28.9%, COCCCNC(=O)Cn1cnc2sc(C)c(S(=O)(=O)N3CCN(c4ccccc4OC)CC3)c2c1=O 12.7%, CCN1CCN(C(=O)c2ccc3c(c2)N(Cc2cccc(F)c2)C(=O)c2ccccc2S3)CC1 -12.3%, CCCCCN1C(C(=O)c2ccccc2)=C(NC(=O)c2ccccc2Cl)c2ccccc2S1(=O)=O -2.93%, COc1ccc(CCNC(=O)c2ccc3c(c2)N(Cc2ccc(Cl)cc2)CCS3)c(OC)c1 -24.7%, Cc1ccc(NC(=O)CCC(=O)N2Cc3ccccc3Oc3ncccc32)cc1 -15%, O=C(CCc1ccccc1)NC1CC(=O)N(c2ccccc2)C1 (stereo not given) -7.97%, COc1cccc(OC)c1C(=O)Nc1ccc2c(c1)N(C(C)=O)CCC2 -18.1%, O=C1CC(c2ccc(Cl)cc2)Sc2nc(-c3ccc(F)cc3)nn21 (stereo not given) 6.04%, CC(C)(C)c1ccc(C(=O)CCCN2CCC(OC(c3ccccc3)c3ccccc3)CC2)cc1 -7.95%, COc1ccc(-c2cnc(C)o2)cc1S(=O)(=O)Nc1ccc(C)c(N(C)C)c1 -18.9%, CCn1c(=O)cc(SCC(=O)NCCc2ccc(OC)cc2OC)c2ccccc21 -20.6%, COCCCNC(=O)CSc1nc(-c2ccccc2)[nH]c1-c1ccc(C)cc1 -21.6%, CCc1ccc(-n2c(=O)c3c4c(sc3n(CC(=O)NC(C)CC)c2=O)CCCC4)cc1 (stereo not given) -17%, CCc1cnc2c(c1SCC(=O)Nc1ccc(C)cc1C)c(=O)n(C)c(=O)n2C -7%, CCCn1c(=O)c2sccc2n2c(CCCC(=O)Nc3cccc(CC)c3)nnc12 -6.74%, O=C(O)CCc1ccc(-c2ccccc2)n1CC(=O)Nc1ccccc1C(F)(F)F -8.78%, COc1ccccc1CNC(=O)CCCCn1c(=O)c2ccccc2n(CC(=O)Nc2cc(Cl)ccc2C)c1=O -46.6%, Cc1ccccc1Nc1nn2c(=O)c3ccc(C(=O)N4CCCC(C)C4)cc3nc2s1 (stereo not given) -7.91%, COc1ccc2c(c1)c1c(c(=O)n(-c3ccccc3C)c(=O)n1CC(=O)Nc1c(C)cccc1C)n2C -6.13%, O=c1c2[nH]c3ccccc3c2nc(SCc2cccc(F)c2)n1-c1ccccc1 -22.1%, COc1cccc(Nc2nc(-c3ccccc3)c3cc(C)ccc3n2)c1 -21.3%, Cc1cccc(CNC(=O)c2ccc(Cn3c(=O)c4cccn4c4cccnc43)cc2)c1 -17.3%, C[C@H](Cn1cnc2c(N)ncnc21)OCP(=O)(O)O -3.54%, O=C(CC1N=C2c3ccccc3N=C(SCc3ccccc3F)N2C1=O)NCc1cccs1 (stereo not given) 3.82%, CCCCNc1cc(C(=O)O)cc(S(N)(=O)=O)c1Oc1ccccc1, CC1CCCCN1S(=O)(=O)c1ccc2c(c1)oc(=O)n2CC(=O)Nc1ccc(Cl)cc1 (stereo not given) -29.8%, COc1cc(C2CC(=O)Nc3c2c(=O)nc2c(C)cccn32)cc(OC)c1OC (stereo not given) -7.41%, CCN(CCCNC(=O)c1cc2cc3ccc(OC)cc3nc2s1)c1ccccc1 -15.8%, Cc1ccc(NC(=O)C(Cc2ccccc2)NS(=O)(=O)c2cccc3nsnc23)c(C)c1 (stereo not given) -23.3%, CCc1ccc(-c2nn(CC(=O)NC3CCCCC3)c3c2cnc2ccc(OC)cc23)cc1 2.94%, Cc1ccc(Cl)cc1NC(=O)C(=O)NCCc1sc(-c2ccc(F)cc2)nc1C -4.66%, COc1ccc(CC(=O)Nc2sc3c(c2C(=O)Nc2c(C)cccc2C)CCCCC3)cc1 -5.62%, COc1ccc(NC(=O)CSC2=Nc3ccccc3C3=NC(CC(=O)NCc4ccc(F)cc4)C(=O)N23)cc1 (stereo not given) -3.54%, COc1cccc(NC(=O)/C(C#N)=C\c2cn(Cc3ccc(Cl)cc3)c3ccccc23)c1 19.9% [at 11.5 µM, percent change from vehicle, -100% = no light], CCCOc1ccc(C(=O)Nc2c(C(=O)c3ccc(C)cc3)oc3ccccc23)cc1 0.379%, COc1ccc(CNC(=O)Cn2c(=O)oc3cc(S(=O)(=O)N4CCCC4)ccc32)cc1 -25.1%, Cc1cccc(S(=O)(=O)c2cn(Cc3ccccc3)c3cc(N4CCCCC4C)c(F)cc3c2=O)c1 (stereo not given) -15.7%, COc1ccc(-c2oc3c(CC=C(C)C)c(OC4O[C@H](CO)[C@@H](O)[C@H](O)[C@@H]4O)cc(O)c3c(=O)c2OC2O[C@@H](C)[C@H](O)[C@@H](O)[C@@H]2O)cc1 (stereo not given in full) -12.7%, CCCCc1ccc(C(=O)N/C(=C\c2ccc(C)cc2)C(=O)NC2CCCCC2)cc1 -10.3%, Cc1cc(C(F)F)n2nc(C(=O)Nc3ccc(F)c(Cl)c3)nc2n1 3.22%, Cc1ccc(Cl)cc1N1CCN(C(=O)c2ccc(C)c(-n3c(C)nc4cccnc43)c2)CC1 -52.2%, CCc1nc2ccc(C(=O)N3CCN(c4ccc(Cl)cc4)CC3)cc2nc1CC 0.281%, O=C(Nc1ccc2nn(-c3ccccc3)nc2c1)c1ccc(-c2cccc(Cl)c2)o1 25.8%, CCOC(=O)[C@H](CCc1ccccc1)N[C@@H](C)C(=O)N(CC(=O)O)C1Cc2ccccc2C1 -5.97%, O=C(CSc1nnc(CNC(=O)c2c(F)cccc2Cl)o1)Nc1cccc(F)c1 -19%, CCOc1ccc(NS(=O)(=O)c2ccc(NC(=O)N3CCCC3)cc2)cc1 -14.5%, O=C(c1cccs1)N1CCCc2cc(NS(=O)(=O)c3ccc(F)cc3)ccc21 0%, COCCCNC(=O)CCc1c(C)nc2cc(-c3ccc(Cl)cc3)nn2c1C -77.7%, COc1ccccc1NC(=O)C1=C(C)Nc2nc(SCc3cc(C)ccc3C)nn2C1c1ccccc1 (stereo not given) 5.21%, O=C(c1ccc2c(=O)n(CCc3ccccc3)c(=O)[nH]c2c1)N1CCN(c2ccc(Cl)cc2)CC1 -33.8%, COc1cc2nc(Cl)nc(N)c2cc1OC -7.19%, CCn1c(C)c(C)c2cc(C(=O)NCCc3ccc(C)cc3)ccc21 -0.568%, Cc1nn2c(-c3cccc(NC(=O)c4ccc(Cl)cc4)c3)nnc2c2ccccc12 -12.8%, CCN1CCC(N(Cc2ccc3c(c2)OCO3)C(=O)Nc2ccc(Br)c(C)c2)CC1 -19.1%, CCS(=O)(=O)N1CCc2cc(C(=O)Nc3cc(Cl)ccc3C)ccc21 -14%, CCOC(=O)c1c(C)[nH]c(CCC(=O)Nc2ccccc2C(=O)OC)c1C -3.98%, CCn1c(=O)n(CC)c2cc(N3CCCCC3)c(NC(=O)Nc3cc(Cl)ccc3OC)cc21 -33.4%, COc1ccc(-n2c(-c3ccco3)nc3c(cnn3-c3ccc(C)cc3)c2=O)cc1 -35.3%, COc1ccc(CCNC(=O)CCS(=O)(=O)c2ccc3c(c2)oc(=O)n3C)cc1OC 11.4% [at 11.5 µM, percent change from vehicle, -100% = no light], CCCCOCc1cc(CN2CCN(c3cccc(Cl)c3)CC2)c(O)c2ncccc12 -38.6%, Cc1ccc(N2CCN(C(=O)c3cn(C)c4ccc(S(=O)(=O)N(C)C5CCCCC5)cc4c3=O)CC2C)cc1 (stereo not given) -1.61% [at 11.5 µM, percent change from vehicle, -100% = no light], Cn1ccnc1SCC(=O)Nc1cc(Cl)ccc1Cl 11.2%, CCCCNC(=O)CCc1c(C)nc2c(c(C)nn2-c2ccccc2)c1C -22.6%, CCN(CC)c1ccc(C2C(C(N)=O)=C(C)Nc3ncnn32)cc1 (stereo not given) -17%, Cc1ccc(NC(=O)C2CCCN2S(=O)(=O)c2cccc3cccnc23)cc1C (stereo not given) -30.7%, Cc1ccccc1CN1CCCN(CC(=O)Nc2c(C)cccc2C)S1(=O)=O -12.3%, O=C(NCCc1ccccc1)c1cc(Sc2ccc(F)cc2F)nc2ccccc12 -8.29%, COc1cccc(OCc2nc3ccccc3n2CCOc2cccc(C)c2)c1 8.88%, Cc1cccc(CS(=O)(=O)c2ncc(Cl)c(C(=O)NCc3ccccc3)n2)c1 -85.5%, COc1ccc(NS(=O)(=O)c2ccc3[nH]c4c(c3c2)CCCCCC4)cc1 -27.7%, Cn1c(=O)c2c(nc(SCC(=O)Nc3ccc(F)cc3)n2Cc2ccccc2)n(C)c1=O 12.4%, Fc1ccc(CNc2nc(-c3ccccc3)cc(C(F)(F)F)n2)cc1 -24.9%, Cc1cc(O)c(C(C)C)cc1Cl -0.0415%, O=C1CC(c2ccc(Cl)cc2)N=C(NC(=O)c2ccccc2)N1 (stereo not given) -9.81%, Cc1ccccc1CS(=O)(=O)Cc1ccc(C(=O)NCc2ccc(F)cc2)o1 -32.4%, Cc1ccc(C)c(NC(=O)c2cc(=O)c3cc(C)cc(C)c3o2)c1 11.2% [at 11.5 µM, percent change from vehicle, -100% = no light], Cc1ccc(NC(=O)Cn2c(=O)ccc3cc(S(=O)(=O)N4CCC(C)CC4)ccc32)cc1Cl -43.2%, COc1cccc(NC(=O)CCNC(=O)Cn2ccc3ccccc3c2=O)c1 0%
